± gives the standard deviation of the averaged measurements. Whole data set: some 33,000 sequences, median “E-score (dimensionless, -0.5 to 0.5)” near -0.049, cut for the highest 2% near 0.37. The list shows a part of the results.

The test system of this assay is T1, PmTbr T-box DNA-binding domain (GST fusion).
T1 sequence: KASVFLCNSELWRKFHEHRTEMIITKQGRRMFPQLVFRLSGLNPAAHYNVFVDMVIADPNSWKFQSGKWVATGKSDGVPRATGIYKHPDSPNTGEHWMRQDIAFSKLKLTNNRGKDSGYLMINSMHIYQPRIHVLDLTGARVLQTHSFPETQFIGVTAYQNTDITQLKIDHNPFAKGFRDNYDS
The experiment in a line: PBM E-score of 8-mer (E-score (dimensionless, -0.5 to 0.5)); Tbr is Tbrain of the sea star Patiria miniata (Pm) or the sea urchin Strongylocentrotus purpuratus (Sp); higher = stronger binding preference; most listed sequences are background and not binding sites. Particulars: the construct has about 5 more residues each side. In a few lines:
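Universal Agilent oligonucleotide arrays, made double-stranded by primer extension, were incubated with 200 nM GST-fused Tbr T-box DNA-binding domain in PBS (pH 7.5). The protein was expressed in BL21 E. coli at 20 °C and purified by glutathione affinity chromatography. After scanning and quantification, the Universal PBM Analysis Suite assigned an enrichment E-score to each ungapped 8-mer, averaged over duplicate arrays.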
For the sequence AAGAAGAA, the “PBM E-score of 8-mer” value was -0.132 ± 0.039. On to GCGATATA, for which the “PBM E-score of 8-mer” value is 0.141 ± 0.026.

In the case of ATGTCGCA, the “PBM E-score of 8-mer” value is 0.254 ± 0.049. On to CGGAACAC, for which the “PBM E-score of 8-mer” value came out at 0.0348 ± 0.042. AGTCGTTG: the “PBM E-score of 8-mer” value is 0.0477 ± 0.079. As to ATACGCGC, the “PBM E-score of 8-mer” value stood at 0.116 ± 0.03. As for CAGAGGGA, the figure is -0.256 ± 0.08.

CCTACCGC: the “PBM E-score of 8-mer” value was 0.0907 ± 0.044.

On to AGGTGTTC, for which the “PBM E-score of 8-mer” value is 0.4091 ± 0.0032. CAGGGGGG: the “PBM E-score of 8-mer” value was -0.169 ± 0.023. On to AGCTATTG, for which the “PBM E-score of 8-mer” value is -0.026 ± 0.011. For GATAGAGC, the “PBM E-score of 8-mer” value was found to be 0.0387 ± 0.035. Turning to TGCCAAAA, the “PBM E-score of 8-mer” value turned out to be 0.236 ± 0.065. AAAGTTCA: the “PBM E-score of 8-mer” value was -0.0127 ± 0.1. On to ACTTTACG, for which the “PBM E-score of 8-mer” value came out at 0.121 ± 0.0063.

Turning to CGTGGGAA, the “PBM E-score of 8-mer” value stood at 0.189 ± 0.015. In the case of GTATTAAC, the “PBM E-score of 8-mer” value was -0.00695 ± 0.0072.

As to TAGCGGAA, the “PBM E-score of 8-mer” value is -0.0364 ± 0.028.

Regarding ATCCACTG, the “PBM E-score of 8-mer” value was -0.21 ± 0.0065.

ACAGCTAG: the “PBM E-score of 8-mer” value was 0.231 ± 0.017. In the case of ACCTTGCT, the “PBM E-score of 8-mer” value is 0.202 ± 0.046. With ATATGGAT, the “PBM E-score of 8-mer” value is -0.142 ± 0.012. For CGGCACGC, the “PBM E-score of 8-mer” value was found to be 0.123 ± 0.0062.

As for GGGGATCA, the “PBM E-score of 8-mer” value was -0.265 ± 0.033. On to CAAAGCAC, for which the “PBM E-score of 8-mer” value was -0.0972 ± 0.039. As for CTGTCTTC, the “PBM E-score of 8-mer” value came to 0.0449 ± 0.021.

Take ACTTCGGG: the “PBM E-score of 8-mer” value was 0.00498 ± 0.08.

As to AAAGTCCC, the “PBM E-score of 8-mer” value was 0.0169 ± 0.079. Consider GGGCTTGA, for which the “PBM E-score of 8-mer” value is -0.144 ± 0.047.

With CCAATTGC, the “PBM E-score of 8-mer” value was -0.162 ± 0.025. As for ACACAGGG, the “PBM E-score of 8-mer” value was found to be 0.00615 ± 0.023. As to AACCTGAA, the “PBM E-score of 8-mer” value is -0.213 ± 0.026. Consider CATGGCAA, for which the “PBM E-score of 8-mer” value is -0.103 ± 0.035. Turning to TGCTGTAA, the “PBM E-score of 8-mer” value is -0.19 ± 0.066.

Turning to TTCAACAA, the “PBM E-score of 8-mer” value is -0.119 ± 0.028. For the sequence CCAACTAG, the “PBM E-score of 8-mer” value is -0.185 ± 0.048. For the sequence GCCGAACA, the “PBM E-score of 8-mer” value is 0.0675 ± 0.049. The figure for AAATTATT is -0.0805 ± 0.082. Consider CCCGAATA, for which the “PBM E-score of 8-mer” value was -0.0811 ± 0.0034. Regarding AAGTAGAC, the “PBM E-score of 8-mer” value was -0.175 ± 0.089. For CATAGTGG, the “PBM E-score of 8-mer” value was -0.118 ± 0.038. As to AGAAGCAG, the “PBM E-score of 8-mer” value is -0.0631 ± 0.041.

In the case of ACAAGGTG, the “PBM E-score of 8-mer” value was found to be 0.429 ± 0.006. With GACGAGGA, the “PBM E-score of 8-mer” value is -0.155 ± 0.049. Turning to CTCTGGTA, the “PBM E-score of 8-mer” value is -0.212 ± 0.015. AGCCGTGG: the “PBM E-score of 8-mer” value was -0.211 ± 0.0058. The figure for AGATCGTC is -0.0551 ± 0.018. With TATCGCGA, the “PBM E-score of 8-mer” value is 0.268 ± 0.018.

ACCAACTG: the “PBM E-score of 8-mer” value amounted to 0.0393 ± 0.03. The figure for AGGCCGAA is -0.397 ± 0.041; for GACATTAC it is -0.0499 ± 0.0013. As to ATGATGAA, the “PBM E-score of 8-mer” value is -0.135 ± 0.028. For the sequence GGCGATAA, the “PBM E-score of 8-mer” value is 0.276 ± 0.048. For the sequence CACATCCC, the “PBM E-score of 8-mer” value was 0.274 ± 0.022.

As for ATTTAGCC, the “PBM E-score of 8-mer” value was -0.0804 ± 0.058. CCATTTAC: the “PBM E-score of 8-mer” value is 0.036 ± 0.01. AAAGAGGT: the “PBM E-score of 8-mer” value stood at 0.0797 ± 0.12.

ACCACTAT: the “PBM E-score of 8-mer” value was found to be 0.0796 ± 0.026.

On to ACCCAGCG, for which the “PBM E-score of 8-mer” value was -0.00227 ± 0.047. Consider AAGGGATT, for which the “PBM E-score of 8-mer” value is -0.212 ± 0.11.

For the sequence ACTGAGGA, the “PBM E-score of 8-mer” value is -0.0989 ± 0.019. In the case of ATTTTGAA, the “PBM E-score of 8-mer” value was -0.166 ± 0.0046. Turning to GACTCAAC, the “PBM E-score of 8-mer” value was -0.0195 ± 0.05. Regarding AGCAGATA, the “PBM E-score of 8-mer” value was -0.0773 ± 0.13. The figure for CTTGCATA is -0.244 ± 0.022; for GATACAAC it is 0.113 ± 0.039; for ATTTACGG it is -0.2 ± 0.029.

Regarding TGCATGAA, the “PBM E-score of 8-mer” value was -0.0976 ± 0.016. With CCACTAAC, the “PBM E-score of 8-mer” value was 0.193 ± 0.018.

CACCGTCG: the “PBM E-score of 8-mer” value was 0.149 ± 0.059.

In the case of ATTTATGC, the “PBM E-score of 8-mer” value is -0.0403 ± 0.011. The figure for GACAAAAC is 0.154 ± 0.024; for CTAAGGAC it is -0.199 ± 0.029.

Take TTAAGTAA: the “PBM E-score of 8-mer” value was -0.192 ± 0.069. On to AGTGTATG, for which the “PBM E-score of 8-mer” value amounted to 0.00756 ± 0.013. For the sequence AGGCGTCA, the “PBM E-score of 8-mer” value came to 0.4194 ± 0.0035.

With ACGCTTAG, the “PBM E-score of 8-mer” value worked out at 0.119 ± 0.025. For AGACTACA, the “PBM E-score of 8-mer” value was -0.0628 ± 0.016. The figure for AATCGTCT is -0.0341 ± 0.11. As for CAGGTTCG, the figure is 0.0766 ± 0.033; as for ATTCCGAG, -0.12 ± 0.018. For the sequence AAGCATTC, the “PBM E-score of 8-mer” value was -0.174 ± 0.068. The figure for CGGGGACC is -0.37 ± 0.02; for CCAGCTCG it is 0.104 ± 0.017; for TCATACAA it is 0.0525 ± 0.0095. ATATTCTG: the “PBM E-score of 8-mer” value was -0.0441 ± 0.026.

The record behind these values is the supplement of paper PMC4166925.
